About 2,200 (0.71%) of roughly 310,000 compounds showed an effect of 50% or more. Effects have a minus sign here. Some of the results follow.
target: human ether-à-go-go-related gene (hERG) potassium channel (human, UniProt Q12809); assay: primary screen, population patch clamp on CHO cells stably expressing hERG
Sequence (Q12809 whole entry, looked up): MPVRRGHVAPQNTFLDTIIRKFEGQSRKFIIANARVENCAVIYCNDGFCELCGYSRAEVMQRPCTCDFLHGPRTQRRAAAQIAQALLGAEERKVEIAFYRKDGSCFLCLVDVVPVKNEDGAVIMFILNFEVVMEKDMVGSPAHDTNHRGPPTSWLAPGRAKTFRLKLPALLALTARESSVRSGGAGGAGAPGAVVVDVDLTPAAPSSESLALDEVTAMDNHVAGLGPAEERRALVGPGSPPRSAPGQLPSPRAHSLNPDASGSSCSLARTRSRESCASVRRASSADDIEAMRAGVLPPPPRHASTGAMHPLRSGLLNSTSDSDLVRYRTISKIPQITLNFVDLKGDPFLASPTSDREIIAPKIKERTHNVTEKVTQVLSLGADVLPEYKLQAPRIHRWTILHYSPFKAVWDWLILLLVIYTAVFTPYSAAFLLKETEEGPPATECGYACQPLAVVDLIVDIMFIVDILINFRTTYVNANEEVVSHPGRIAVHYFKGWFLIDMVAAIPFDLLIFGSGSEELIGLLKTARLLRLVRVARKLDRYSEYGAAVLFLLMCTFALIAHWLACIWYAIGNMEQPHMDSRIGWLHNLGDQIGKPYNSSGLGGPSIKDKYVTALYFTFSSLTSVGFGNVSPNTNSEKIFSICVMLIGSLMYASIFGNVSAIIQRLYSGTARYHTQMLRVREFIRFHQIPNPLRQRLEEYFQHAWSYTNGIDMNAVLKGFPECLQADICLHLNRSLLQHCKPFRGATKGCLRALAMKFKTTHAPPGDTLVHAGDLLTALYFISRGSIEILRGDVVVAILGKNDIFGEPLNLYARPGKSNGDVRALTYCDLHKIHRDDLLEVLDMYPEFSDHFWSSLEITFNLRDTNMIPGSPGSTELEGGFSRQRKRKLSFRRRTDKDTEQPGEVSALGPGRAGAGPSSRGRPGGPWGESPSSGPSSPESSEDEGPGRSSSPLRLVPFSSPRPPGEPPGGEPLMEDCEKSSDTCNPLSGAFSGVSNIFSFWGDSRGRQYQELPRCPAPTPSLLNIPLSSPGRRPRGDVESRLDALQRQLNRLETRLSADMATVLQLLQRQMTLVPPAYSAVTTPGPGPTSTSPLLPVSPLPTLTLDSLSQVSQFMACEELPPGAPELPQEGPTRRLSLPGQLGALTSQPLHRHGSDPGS

| Structure (SMILES) | hERG current change (%, negative = inhibition) at 1uM |
| --- | --- |
| O=C(CSc1nnc(-c2ccccc2)n1-c1ccc(Cl)cc1)N/N=C/c1ccco1 | 5.86% |
| CCCCOc1ccc(-c2nnc(-c3ccncc3)o2)cc1 | 11.1% |
| COc1ccc(OCC(=O)N2CCN(S(=O)(=O)c3ccccc3[N+](=O)[O-])CC2)cc1 | 7.63% |
| COc1cc(OC)c(OC)cc1CNC(=O)c1ccc(S(=O)(=O)N2CC(C)OC(C)C2)cc1 (stereo not drawn) | 5.78% |
| O=c1cc2c(nn1Cc1ccccc1Cl)-c1ccccc1CC2 | 8.96% |
| COc1ccc(CNc2nc(NC(C)=O)nn2-c2ccccc2)cc1 | 11.3% |
| Cc1onc(-c2ccccc2Cl)c1C(=O)Nc1ccc(S(=O)(=O)Nc2nccs2)cc1 | 15.3% |
| COc1ccc(NC(=O)C2CCN(S(=O)(=O)c3c(C)noc3C)CC2)cc1OC | 10.6% |
| COc1ccc2c(c1OC)C(=O)N1C2SC(C)(C)[C@H]1C(=O)NC(C)C (stereo partly drawn) | 15.5% |
| O=C(CCn1nc(-c2ccccc2)ccc1=O)N1CCN(c2ccccn2)CC1 | -14.4% |
| O=c1c([N+](=O)[O-])c(N2CCCC2)c2ccccc2n1-c1ccccc1 | 4.99% |
| COc1ccccc1C(=O)N1CC(=O)Nc2ccc(F)cc2C1c1ccccc1 (stereo not drawn) | 6.42% |
| O=C(c1cnn2ccccc12)N1CCCc2ccccc21 | 5.5% |
| Cc1nn(CC(=O)NCc2cccc3ccccc23)c(=O)c2ccccc12 | 11.4% |
| Cc1ccc(NC(=O)c2ccco2)c(NC(=O)c2ccccc2C)c1 | 11.1% |
| CCc1ccc(-c2cc(C(=O)N3N=C(C(F)F)CC3(O)C(F)F)c3ccccc3n2)cc1 (stereo not drawn) | -11.2% |
| O=C1C=C(c2cccc(Cl)c2O)C[C@@H](c2ccc(Cl)cc2)C1 | -0.691% |
| Cc1ccc(Cn2nnnc2CN2CCC(NC(=O)c3ccc(Br)cc3)CC2)cc1 | -16.3% |
| CS(=O)(=O)N1CCCC(C(=O)Nc2ccccc2Cl)C1 (stereo not drawn) | 28.7% |
| NC(=O)C1CCN(CC(=O)NCc2ccccc2)CC1 | 12.9% |
| O=C(CSc1nc2ccccc2c(=O)[nH]1)c1cccs1 | 7.16% |
| COc1ccc(-n2c(O)c(/C=N/NS(=O)(=O)c3ccc(C)cc3)c3ccccc3c2=O)cc1OC | 3.33% |
| COc1ccc(N(C(=O)c2ccco2)S(=O)(=O)c2cc(OC)ccc2OC)cc1 | 3.95% |
| Cn1c(=O)oc2cc(S(=O)(=O)N3CCCC(C(=O)Nc4ccc5c(c4)OCCO5)C3)ccc21 (stereo not drawn) | 1.2% |
| CC(C)C(=O)Nc1ccc2nn(-c3ccc(F)cc3)nc2c1 | 2.13% |
| COc1ccc(/C=C2\SC(=O)N(CCc3nnc(N)s3)C2=O)cc1 | -1.81% |
| O=C(CCc1nc(-c2ccccc2F)no1)NC1CCN(Cc2ccccc2)CC1 | -12.2% |

| Structure (SMILES) | hERG current change (%, negative = inhibition) at 1uM |
| --- | --- |
| O=C(Nc1ccc(N2CCCC2)cc1)c1cccc(Cl)c1Cl | 18.8% |
| CN=CC1=C(O)C(C(=O)OC)C(C)(C)CC1=O (stereo not drawn) | 15.8% |
| O=C(C1CCCN(Cc2ccccc2[N+](=O)[O-])C1)N1CCCC1.O=C(O)C(=O)O (stereo not drawn) | 9.26% |
| Cc1csc(NC(=O)c2cccc(S(=O)(=O)N3CCCCC3)c2)n1 | 12.4% |
| NC(=O)C1CCN(C2CC(=O)N(c3ccc(F)c(Cl)c3)C2=O)CC1 (stereo not drawn) | 1.29% |
| C=CCn1c(SCC(=O)NCc2ccco2)nc2sc(C)c(C)c2c1=O | 12.1% |
| N#CCC(=O)N1CCCCCC1 | -5.22% |
| Cc1cc(OCC(=O)N(C)c2c(N)n(Cc3ccccc3)c(=O)[nH]c2=O)c(C(C)C)cc1Cl | 6.68% |
| COc1ccccc1C(=O)NNC(=O)c1cccc(F)c1 | 9.95% |
| CCOC(=O)Cc1csc(NS(=O)(=O)c2ccc3ccccc3c2)n1 | 59% |
| O=C(Cn1cnc([N+](=O)[O-])n1)c1ccccc1 | 16.3% |
| COc1cc(OC)cc(C(=O)Nc2ccc(S(=O)(=O)Nc3nc(C)cc(C)n3)cc2)c1 | 18.6% |
| O=C(Cn1nnc(-c2ccccc2)n1)N=Nc1c(O)[nH]c2ccccc12 | 18.9% |
| O=C(NCc1ccccc1CN1CCCC1)c1cc2ccccc2o1 | -31.4% |
| O=C(Nc1ccc(Cl)cc1)Nc1nc(-c2sccc2Br)cs1 | 6.5% |
| Cc1ccc(NC(=O)CSc2nnc(C)n2-c2ccccc2)cc1 | 4.28% |
| COc1ccc(OC)c(/C=N/NC(=O)C(=O)N/N=C/c2cc(OC)ccc2OC)c1 | 18% |
| COc1ccc(CNC(=O)CCS(=O)(=O)c2cccc3nonc23)cc1 | 4.85% |
| O=C1OC(c2cccc([N+](=O)[O-])c2)C2(CCCC2)C(=O)C12CCCCC2 (stereo not drawn) | -0.72% |
| CCOc1ccc(N(C)S(=O)(=O)c2ccc3[nH]cc(C(=O)NCCOC)c(=O)c3c2)cc1 | 8.46% |
| Cc1ccc(-c2ccc(CCC(=O)O)n2-c2cccc(O)c2)cc1 | 12.7% |
| CS(=O)(=O)N(CC(=O)O)Cc1cccc(CN(CC(=O)O)S(C)(=O)=O)c1 | 10.1% |
| Cc1ccc(CN(C)C(=O)c2c(C)nn(-c3ccccc3)c2C)cc1 | 10.9% |
| C=C1N2CCC(CC2)C1(O)c1ccc(C)cc1.Cl (stereo not drawn) | 18.7% |
| N/C(=N\[N+](=O)[O-])N1CCN(C(=O)OC2CCCC2)CC1 | 14.9% |
| CCCCN(C)CCCNC(=O)c1ccc2c(c1)NC(=O)C(N1CCOCC1)S2 (stereo not drawn) | 14.5% |
| CC[C@@]12C(=O)N(c3ccc(C)cc3)C(=O)N1[C@H](c1ccc(OC)cc1)[C@@H]1C(=O)N(C(C)(C)C)C(=O)[C@@H]12 | 9.78% |

Source: paper PMC4336329 (PLoS ONE, 2015)
